Measured values from the supplement of paper PMC4967469.
A lower IC50 marks a more sensitive line; a limit (>, <) means that the fit lies beyond the doses tested. AUC sums up the same curve from the lowest dose to the 256-fold higher top dose; it is 1 without any effect and falls as sensitivity rises. For part of these data: Any top dose called inferred comes from the curve model; the source does not state it. For part of these data: An entry number marks a drug with two screens in the source, which often give different values.

What was measured:
Assay in all cases: Viability of human cancer cell lines after 72 h of drug (GDSC screen)
Thapsigargin = compound: C/C=C(/C)C(=O)O[C@H]1C(C)=C2[C@H]([C@@H]1OC(=O)CCCCCCC)[C@@](C)(OC(C)=O)C[C@H](OC(=O)CCC)[C@@]1(O)[C@H]2OC(=O)[C@@]1(C)O [Thapsigargin]; conditions: top dose 0.512 µM; top dose inferred
Description: (§1)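 Human cancer cell lines in 384-well plates, medium with 10% serum, drug for 72 h over a 256-fold dose range (nine 2-fold or five 4-fold steps up to the top dose). Adherent lines were fixed and stained with the nucleic acid dye Syto60, suspension lines read with resazurin; signal relative to control wells, capped at 0 and 100%. One two-parameter sigmoid per drug and line, fitted in a mixed model over all curves with the slope shared within a line.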

QL-X-138 = compound: C=CC(=O)Nc1cc(-n2c(=O)ccc3cnc4ccc(-c5cn[nH]c5)cc4c32)ccc1C [QL-X-138]; conditions: top dose 10.24 µM; top dose inferred
Description: as §1

GSK269962A = compound: CCn1c(-c2nonc2N)nc2cnc(Oc3cccc(NC(=O)c4ccc(OCCN5CCOCC5)cc4)c3)cc21 [GSK269962A]; conditions: top dose inferred
Description: as §1

MPS-1-IN-1 = compound: COc1cc(N2CCC(O)CC2)ccc1Nc1cc(Nc2ccccc2S(=O)(=O)C(C)C)c2cc[nH]c2n1 [MPS-1-IN-1]; conditions: top dose 20 µM; top dose inferred
Description: as §1

(5Z)-7-Oxozeaenol = compound: COc1cc(O)c2c(c1)/C=C/C[C@H](O)[C@H](O)C(=O)/C=C\C[C@H](C)OC2=O [(5Z)-7-Oxozeaenol]; conditions: top dose 10 µM; top dose inferred
Description: as §1

CP466722 = compound: COc1cc2ncnc(-n3nc(-c4ccccn4)nc3N)c2cc1OC [CP466722]; conditions: top dose 16 µM; top dose inferred
Description: as §1

Zibotentan = compound: COc1nc(C)cnc1NS(=O)(=O)c1cccnc1-c1ccc(-c2nnco2)cc1 [Zibotentan]; conditions: top dose 20 µM; top dose inferred
Description: as §1

ABT-888 = compound: C[C@]1(c2nc3c(C(N)=O)cccc3[nH]2)CCCN1 [ABT-888]; conditions: top dose 5 µM; top dose inferred
Description: as §1

CMK = compound: Cc1ccc(-c2c(C(=O)CCl)n(CCCO)c3ncnc(N)c23)cc1 [CMK]; conditions: top dose 4 µM; top dose inferred
Description: as §1

ABT-869 = compound: Cc1ccc(F)c(NC(=O)Nc2ccc(-c3cccc4[nH]nc(N)c34)cc2)c1 [ABT-869]; conditions: top dose 1.024 µM; top dose inferred
Description: as §1

CHIR-99021 = compound: Cc1cnc(-c2cnc(NCCNc3ccc(C#N)cn3)nc2-c2ccc(Cl)cc2Cl)[nH]1 [CHIR-99021]
Description: as §1

Cytarabine = compound: Nc1ccn([C@@H]2O[C@H](CO)[C@@H](O)[C@@H]2O)c(=O)n1 [Cytarabine]; conditions: top dose 2 µM
Description: as §1

KU-55933 = compound: O=c1cc(-c2cccc3c2Sc2ccccc2S3)oc(N2CCOCC2)c1 [KU-55933]; conditions: top dose 10 µM
Description: as §1

[1] = top dose 2.5 µM, screen: GDSC drug entry 127
[2] = top dose 5 µM, screen: GDSC drug entry 1192
[3] = top dose 2.56 µM, screen: GDSC drug entry 154
[4] = top dose 10 µM, screen: GDSC drug entry 1241, top dose inferred

| Cell Line | AUC (Thapsigargin) | IC50 (Thapsigargin) [µM] | AUC (QL-X-138) | IC50 (QL-X-138) [µM] | AUC (GSK269962A; [1]) | IC50 (GSK269962A; [1]) [µM] | AUC (GSK269962A; [2]) | IC50 (GSK269962A; [2]) [µM] | AUC (MPS-1-IN-1) | IC50 (MPS-1-IN-1) [µM] | AUC ((5Z)-7-Oxozeaenol) | IC50 ((5Z)-7-Oxozeaenol) [µM] | AUC (CP466722) | IC50 (CP466722) [µM] | AUC (Zibotentan) | IC50 (Zibotentan) [µM] | AUC (ABT-888) | IC50 (ABT-888) [µM] | AUC (CMK) | IC50 (CMK) [µM] | AUC (ABT-869) | IC50 (ABT-869) [µM] | AUC (CHIR-99021; [3]) | IC50 (CHIR-99021; [3]) [µM] | AUC (CHIR-99021; [4]) | IC50 (CHIR-99021; [4]) [µM] | AUC (Cytarabine) | IC50 (Cytarabine) [µM] | AUC (KU-55933) | IC50 (KU-55933) [µM] |
| --- | --- | --- | --- | --- | --- | --- | --- | --- | --- | --- | --- | --- | --- | --- | --- | --- | --- | --- | --- | --- | --- | --- | --- | --- | --- | --- | --- | --- | --- | --- |
| JJN-3 (haematopoietic neoplasm, suspension) | 0.133 | 0.00313 | 0.447 | 0.471 | 0.973 | > 2.5 | 0.903 | 4.47 | 0.889 | 15.6 | 0.608 | 1.17 | 0.731 | 3.92 | 0.991 | > 20 | 0.992 | > 5 | 0.806 | 1.61 | 0.992 | > 1.02 | 0.988 | > 2.56 | 0.975 | > 10 | 0.315 | 0.0424 | 0.97 | > 10 |
| JM1 (B-cell lymphoma, suspension) | 0.467 | 0.0264 | 0.507 | 0.666 | 0.931 | > 2.5 | 0.894 | 4.53 | 0.838 | 10.9 | 0.689 | 1.94 | 0.692 | 3.16 | 0.99 | > 20 | 0.99 | > 5 | 0.845 | 2.3 | 0.991 | > 1.02 | 0.955 | > 2.56 | 0.845 | 5.77 | 0.325 | 0.044 | 0.958 | > 10 |
| JVM-3 (lymphoid neoplasm, suspension) | 0.364 | 0.0134 | 0.869 | 9.72 | 0.986 | > 2.5 | 0.893 | > 5 | 0.817 | 11.4 | 0.536 | 0.785 | 0.93 | > 16 | 0.98 | > 20 | 0.92 | > 5 | 0.983 | > 4 | 0.986 | > 1.02 | 0.984 | > 2.56 | 0.98 | > 10 | 0.81 | 1.07 | 0.873 | 9.84 |
| JiyoyeP-2003 (Burkitt lymphoma, suspension) | 0.266 | 0.00762 | 0.836 | 5.65 | 0.981 | > 2.5 | 0.981 | > 5 | 0.855 | 12.9 | 0.888 | 8.87 | 0.937 | > 16 | 0.982 | > 20 | 0.983 | > 5 | 0.871 | 3 | 0.99 | > 1.02 | 0.97 | > 2.56 | 0.987 | > 10 | 0.985 | > 2 | 0.96 | > 10 |
| K5 (thyroid, adherent) | 0.859 | 0.397 | 0.809 | 5.07 | 0.894 | > 2.5 | 0.821 | 2.73 | 0.966 | > 20 | 0.066 | < 0.0391 | 0.85 | 11.3 | 0.981 | > 20 | 0.976 | > 5 | 0.941 | > 4 | 0.986 | > 1.02 | 0.954 | > 2.56 | 0.854 | 7.4 | 0.349 | 0.0487 | 0.969 | > 10 |
| KARPAS-45 (lymphoblastic leukaemia, suspension) | 0.281 | 0.0087 | 0.689 | 1.95 | 0.883 | 1.92 | 0.884 | 3.86 | 0.821 | 9.19 | 0.815 | 4.38 | 0.46 | 0.791 | 0.989 | > 20 | 0.989 | > 5 | 0.936 | > 4 | 0.982 | > 1.02 | 0.992 | > 2.56 | 0.991 | > 10 | 0.968 | > 2 | 0.865 | 6.47 |
| KARPAS-299 (anaplastic large cell lymphoma, suspension) | 0.544 | 0.0412 | 0.841 | 5.45 | 0.967 | > 2.5 | 0.953 | > 5 | 0.489 | 1.17 | 0.703 | 2.08 | 0.782 | 5.55 | 0.989 | > 20 | 0.984 | > 5 | 0.977 | > 4 | 0.992 | > 1.02 | 0.979 | > 2.56 | 0.987 | > 10 | 0.88 | 1.48 | 0.971 | > 10 |
| KARPAS-422 (B-cell lymphoma, suspension) | 0.475 | 0.0274 | 0.498 | 0.632 | 0.965 | > 2.5 | 0.953 | > 5 | 0.919 | > 20 | 0.802 | 4.83 | 0.954 | > 16 | 0.984 | > 20 | 0.988 | > 5 | 0.915 | > 4 | 0.988 | > 1.02 | 0.988 | > 2.56 | 0.987 | > 10 | 0.969 | > 2 | 0.89 | > 10 |
